The supplement of paper PMC4206461
Some of the results follow.

System: Pseudomonas aeruginosa PA14 dppA1-A5 penta deletion mutant
Assay: respiration area under curve with compound as sole nitrogen source, 24 h (OmniLog AUC (arbitrary units)); higher = more respiration / better utilisation as nitrogen source; extreme values may be limits of the assay
Details: plate: PM8
Procedure: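 Biolog Phenotype MicroArray plates PM6-PM8: each di/tripeptide is the sole nitrogen source. Tetrazolium reduction was read in the OmniLog for 24 h at 37°C and summarised as area under the respiration curve (arbitrary units). Values below 2000 count as no respiration.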

Compound | respiration area under curve
CC(C)C[C@H](NC(=O)CNC(=O)CN)C(=O)O | inactive: 397
CC(C)C[C@@H](NC(=O)CNC(=O)CN)C(=O)O | inactive: 19.7
